Test results published in the supplement of paper PMC9446081.
Hit rate of the full screen: of about 39,000 compounds, about 220 (0.56%) showed activity. This is one part of the list.

Each compound was assayed on Escherichia coli K-12 BW25113 (assay: relative growth (OD600 normalised to plate interquartile mean) (fraction); higher = less growth inhibition, active = 0.2 or less). Settings: 50 µM; LB; incubation time: overnight (16-24 h).
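Further: static incubation at 37 °C against the wild-type strain, values averaged over two biological replicates.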

Compound	relative growth
Cc1noc(C)c1S(=O)(=O)Nc1ccc2c(c1)CC(=O)N([C@@H](C)CO)C[C@H](C)[C@H](CN(C)C(=O)NC(C)C)O2	inactive: 0.984
CC(=O)NC(Cc1ccccc1)C(=O)O (stereo not given)	inactive: 0.859
Cc1noc(C)c1NC(=O)Nc1ccc2c(c1)C(=O)N([C@@H](C)CO)C[C@@H](C)[C@H](CN(C)C(=O)Nc1ccc3c(c1)OCO3)OCCCC[C@@H](C)O2	inactive: 0.994
COCC#Cc1cnc2c(c1)C(=O)N([C@H](C)CO)C[C@H](C)[C@@H](CN(C)C(=O)Nc1ccc(OC)cc1)O2	inactive: 1.01
COc1ccc(NC(=O)N(C)C[C@@H]2Oc3ccc(NC(=O)CCN4CCOCC4)cc3C(=O)N([C@@H](C)CO)C[C@H]2C)cc1	inactive: 0.974
COc1ccc(O)cc1	inactive: 1
Cc1ccc(S(=O)(=O)Nc2ccc3c(c2)C(=O)N([C@H](C)CO)C[C@H](C)[C@@H](CN(C)S(=O)(=O)c2ccc(C)cc2)OCCCC[C@@H](C)O3)cc1	inactive: 0.988
COc1ccc(S(=O)(=O)N(C)C[C@@H]2OCCCC[C@@H](C)Oc3ccc(NC(=O)Nc4ccc(C(F)(F)F)cc4)cc3C(=O)N([C@H](C)CO)C[C@@H]2C)cc1	inactive: 1.02
COc1ccc(NC(=O)N(C)C[C@@H]2Oc3ccc(NC(=O)CCCCCC(=O)Nc4ccccc4N)cc3C(=O)N([C@H](C)CO)C[C@@H]2C)cc1	inactive: 0.901
COc1ccc(CN(C)C[C@H]2OCCCC[C@H](C)Oc3ccc(NS(=O)(=O)c4ccc(OC)cc4)cc3C(=O)N([C@@H](C)CO)C[C@H]2C)cc1	inactive: 1.02
CN1CCN(C(=O)C[C@H]2CC[C@@H]3[C@H](COC[C@@H](O)CN3S(=O)(=O)c3cccc(Cl)c3)O2)CC1	inactive: 1.03
C[C@@H]1CN([C@H](C)CO)S(=O)(=O)c2ccc(-c3ccc(C(=O)N(C)C)cc3)cc2O[C@@H]1CN(C)C(=O)C1CC1	inactive: 1
C[C@H]1CN([C@@H](C)CO)C(=O)Cc2cc(NC(=O)Nc3cccc4ccccc34)ccc2O[C@H]1CN(C)Cc1ccc(Oc2ccccc2)cc1	inactive: 1.04
Cc1noc(C)c1S(=O)(=O)Nc1ccc2c(c1)C(=O)N([C@@H](C)CO)C[C@H](C)[C@@H](CN(C)C(=O)Nc1ccc(F)cc1)OCCCC[C@H](C)O2	inactive: 1.03
CC(C)CC#Cc1ccc2c(c1)O[C@@H](CN(C)S(=O)(=O)c1ccc(F)cc1)[C@@H](C)CN([C@H](C)CO)S2(=O)=O	inactive: 1.04
Cc1noc(C)c1S(=O)(=O)N(C)C[C@@H]1Oc2ccc(NC(=O)Nc3ccccc3)cc2C(=O)N([C@@H](C)CO)C[C@@H]1C	inactive: 0.986
C[C@@H]1CCCCO[C@H](CN(C)Cc2ccc(C(=O)O)cc2)[C@H](C)CN([C@H](C)CO)C(=O)c2cc(NC(=O)c3ccccc3)ccc2O1	inactive: 0.998
C[C@H](CO)N1C[C@H](C)[C@H](CN(C)C(=O)Nc2ccccc2F)Oc2ncc(C#CCN(C)C)cc2C1=O	inactive: 1.03
COC(=O)c1ccc(C(=O)OC)c(N)c1	inactive: 0.93
COc1ccc(S(=O)(=O)N(C)C[C@H]2Oc3c(NS(=O)(=O)c4c(C)noc4C)cccc3C(=O)N([C@@H](C)CO)C[C@@H]2C)cc1	inactive: 0.989

Compound	relative growth
COc1ccc(C#Cc2ccc3c(c2)O[C@@H](CN(C)S(=O)(=O)c2ccccc2F)[C@H](C)CN([C@H](C)CO)S3(=O)=O)cc1	inactive: 1.06
NCCCC(=O)O	inactive: 0.994
C[C@H]1CN([C@@H](C)CO)C(=O)c2cccc(NC(=O)c3nc4ccccc4s3)c2O[C@H]1CN(C)Cc1ccc(C(F)(F)F)cc1	inactive: 0.988
COc1cc(OC)c(NC(=O)Cn2c(=O)n(-c3ccc(CC(=O)NC[C@H]4CCCO4)cc3)c(=O)c3ccccc32)cc1Cl	inactive: 0.984
Cc1noc(C)c1NC(=O)N(C)C[C@@H]1Oc2ccc(NC(=O)C3CC3)cc2C(=O)N([C@H](C)CO)C[C@@H]1C	inactive: 0.961
Cc1ncc(CO)c(CO)c1O	inactive: 0.987
C[C@H]1CN([C@@H](C)CO)S(=O)(=O)c2ccc(C#CCN(C)C)cc2O[C@@H]1CN(C)Cc1ccccc1F	inactive: 0.995
COc1cccc2cc(C(C)=O)oc12	inactive: 1.02
C[C@H]1CN([C@@H](C)CO)C(=O)Cc2cc(NC(=O)Cn3cnnn3)ccc2O[C@H]1CN(C)CC1CCCCC1	inactive: 0.977
C[C@@H]1CN([C@H](C)CO)C(=O)c2cccc(NC(=O)Nc3ccc(C(F)(F)F)cc3)c2O[C@H]1CN(C)C(=O)Nc1ccc(C(F)(F)F)cc1	inactive: 0.978
CNC(=NC#N)NCCSCc1nc[nH]c1C	inactive: 1.08
COc1ccc(NC(=O)N(C)C[C@H]2Oc3c(NC(=O)Nc4cccc5ccccc45)cccc3C(=O)N([C@H](C)CO)C[C@@H]2C)cc1	inactive: 1
C[C@@H]1CN([C@@H](C)CO)C(=O)c2cccc(NC(=O)c3ccc(-c4nccs4)cc3)c2O[C@@H]1CN(C)C(=O)NC1CCCCC1	inactive: 0.999
C[C@@H]1CN([C@H](C)CO)C(=O)c2cccc(NC(=O)Nc3ccc(C(F)(F)F)cc3)c2O[C@@H]1CN(C)S(=O)(=O)c1ccc(Cl)cc1	inactive: 0.868
C[C@@H]1CN([C@@H](C)CO)C(=O)c2cccc(NC(=O)c3nc4ccccc4s3)c2O[C@@H]1CN(C)S(=O)(=O)c1cn(C)cn1	inactive: 0.995
C[C@@H]1CN([C@H](C)CO)C(=O)c2cc(C#Cc3ccccn3)cnc2O[C@H]1CN(C)C(=O)c1cnccn1	inactive: 1.01
COc1cc(N)ccc1N1CCCS1(=O)=O	inactive: 0.944
C[C@@H]1CCCCO[C@@H](CN(C)C(=O)C2CCCCC2)[C@H](C)CN([C@H](C)CO)C(=O)c2cc(NC(=O)Nc3cccc4ccccc34)ccc2O1	inactive: 1.04
Cc1noc(C)c1NC(=O)N(C)C[C@@H]1Oc2ccc(NS(C)(=O)=O)cc2CC(=O)N([C@H](C)CO)C[C@@H]1C	inactive: 0.983
Nc1ccc(O)cc1	inactive: 1.04
